Measured values published in PubChem BioAssay AID1745853 (National Center for Advancing Translational Sciences (NCATS), 2022).
This is one part of the list. These are further read-outs of the screen, such as a control signal, another cell line or another target. No call is given for them.

How the values were obtained:
Assay in all cases: Primary Screen for Target Class Profiling of Small Molecule Inhibitors of Methyltransferases
[1] = biological target: Glycine N-methyltransferase (Homo sapiens) (UniProt Q14749); settings: purified enzyme, MTase-Glo SAH luminescence; measured here: GNMT inhibition; at 40 µM; stronger effect = lower value
Method in brief: (§1)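 Each enzyme was reacted with SAM and its substrate, with compounds tested once at 40 uM; SAH formed was read by MTase-Glo luminescence.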

[2] = biological target: Guanidinoacetate N-methyltransferase (Homo sapiens) (UniProt Q14353); settings: purified enzyme, MTase-Glo SAH luminescence; measured here: GAMT inhibition; at 40 µM; stronger effect = lower value
Method in brief: as §1

[3] = biological target: Histamine N-methyltransferase (Homo sapiens) (UniProt P50135); settings: purified enzyme, MTase-Glo SAH luminescence; measured here: HNMT inhibition; at 40 µM; stronger effect = lower value
Method in brief: as §1

[4] = biological target: Nicotinamide N-methyltransferase (Homo sapiens) (UniProt P40261); settings: purified enzyme, MTase-Glo SAH luminescence; measured here: NNMT inhibition; at 40 µM; stronger effect = lower value
Method in brief: as §1

[5] = biological target: Phenylethanolamine N-methyltransferase (Homo sapiens) (UniProt P11086); settings: purified enzyme, MTase-Glo SAH luminescence; measured here: PNMT inhibition; at 40 µM; stronger effect = lower value
Method in brief: as §1
On the % scale 0 is the no-effect control and ±100 the full control effect.

Row | Compound | activity change, negative = inhibition [1] | activity change, negative = inhibition [2] | activity change, negative = inhibition [3] | activity change, negative = inhibition [4] | activity change, negative = inhibition [5]
1 | C=CCOc1cccc(-c2nnc(CCC(=O)NCc3ccccc3)c(=O)[nH]2)c1 | -13.8% | -2.19% | -2.68% | -7.25% | -20.6%
2 | COc1cccc2cc3c(c(O[C@@H]4O[C@H](CO[C@@H]5O[C@H](CO)[C@@H](O)[C@H](O)[C@H]5O)[C@@H](O)[C@H](O)[C@H]4O)c12)C(C)OC3=O (stereo not given in full) | -4.14% | -15.2% | 3.5% | -19.1% | -47.9%
3 | CCOc1ccccc1CNC(=O)c1ncn2c1C(=O)N(CC)C(C)(C(=O)NC1CCCC1)C2 (stereo not given) | -0.119% | 0% | 10.2% | 5.74% | 4.63%
4 | CCCn1c(=O)c2ccc(C(=O)NC3CCCC3)cc2n2c(=O)n(CC(=O)N(C)c3ccccc3)nc12 | 7.2% | 1.71% | 14% | 2.12% | 6.41%
5 | COc1ccc(C(=O)Nc2ncc(-c3ccc(C(=O)O)cc3)s2)cc1 | -16.8% | 1.52% | 10.5% | -10.8% | 4.04%
6 | CCOC(=O)c1cc2n(n1)CC(C)(C(=O)NCc1ccc(C)cc1)N(CCc1ccc(Cl)cc1)C2=O (stereo not given) | 2.14% | 0% | 4.2% | -2.11% | 1.4%
7 | COc1ccc(-n2ncc3c2CC(C)(C)CC3NC(=O)c2cc(C)[nH]n2)cc1 (stereo not given) | -7.85% | -8.96% | -5.74% | -21.6% | 7.11%
8 | Nc1nc(F)nc2c1ncn2[C@@H]1O[C@H](CO)[C@@H](O)[C@@H]1O | 5.96% | 9.72% | 11% | -5.26% | 6.14%
9 | Cc1c(OCC(F)(F)F)ccnc1CS(=O)c1nc2ccccc2[nH]1 (stereo not given) | -64.3% | 7% | -2.93% | -7.54% | 3.98%
10 | CC1(C)CCCC2(C)C1CC=C1C(=O)OC(O)C12O (stereo not given) | 2.1% | -8.1% | 3.54% | -19.5% | -1.06%
11 | CC1(C(=O)NC2CCCCC2)Cc2ccccc2C(=O)N1Cc1ccc(F)cc1 (stereo not given) | 0.909% | 1.88% | 8.72% | 3.04% | 1.9%
12 | O=C(CC(c1ccccc1)c1ccccc1F)N1CCN(c2ccncc2)CC1 (stereo not given) | -8.1% | -7.53% | -35.3% | -22.2% | -9.67%
13 | O=C1NC(=O)[C@@]2(CCOc3ccc(F)cc32)N1 | 5.68% | 9.14% | 7.03% | -4.27% | 6.81%
14 | COC(=O)c1cc2n(n1)CC(C)(C(=O)NC1CCCCCC1)N(CCc1cccs1)C2=O (stereo not given) | -2.79% | 0.782% | -14.4% | -0.447% | -3.12%
15 | Cc1ccc(Cn2c(=O)c3ccccc3n3c(-c4ccc(F)cc4)nnc23)cc1 | -7.92% | 1.18% | -5.45% | 1.33% | -6.09%
16 | CCC(C)NC(=O)c1ccc2c(=O)n(C)c3nn(Cc4ccccc4)c(=O)n3c2c1 (stereo not given) | -0.663% | 0.494% | -0.093% | 0.025% | 4.06%
17 | CC1(C)C(=O)N(CC2CCOCC2)[C@H]2CN(Cc3cccs3)C[C@@H]2[S+]1(=O)[O-] | 0.694% | -11.2% | 0.698% | -18.9% | -3.31%
